Data from article PMC4336329 (PLoS ONE, 2015).
In all, about 310,000 compounds went through this assay and about 14,000 (4.5%) showed an effect of 50% or more. The effect is printed as a negative number. The list shows a part of the results. Where a SMILES comes first, the peptide text is derived from it. The star is where a group is joined. Boc = CC(C)(C)OC(=O)*

Target: human ether-à-go-go-related gene (hERG) potassium channel (human, UniProt Q12809)
Experiment: primary screen, population patch clamp on CHO cells stably expressing hERG
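Also: peak tail current of the secondary pulse compared with the same well before compound.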

Chain of human ether-à-go-go-related gene (hERG) potassium channel (Q12809 whole entry, looked up): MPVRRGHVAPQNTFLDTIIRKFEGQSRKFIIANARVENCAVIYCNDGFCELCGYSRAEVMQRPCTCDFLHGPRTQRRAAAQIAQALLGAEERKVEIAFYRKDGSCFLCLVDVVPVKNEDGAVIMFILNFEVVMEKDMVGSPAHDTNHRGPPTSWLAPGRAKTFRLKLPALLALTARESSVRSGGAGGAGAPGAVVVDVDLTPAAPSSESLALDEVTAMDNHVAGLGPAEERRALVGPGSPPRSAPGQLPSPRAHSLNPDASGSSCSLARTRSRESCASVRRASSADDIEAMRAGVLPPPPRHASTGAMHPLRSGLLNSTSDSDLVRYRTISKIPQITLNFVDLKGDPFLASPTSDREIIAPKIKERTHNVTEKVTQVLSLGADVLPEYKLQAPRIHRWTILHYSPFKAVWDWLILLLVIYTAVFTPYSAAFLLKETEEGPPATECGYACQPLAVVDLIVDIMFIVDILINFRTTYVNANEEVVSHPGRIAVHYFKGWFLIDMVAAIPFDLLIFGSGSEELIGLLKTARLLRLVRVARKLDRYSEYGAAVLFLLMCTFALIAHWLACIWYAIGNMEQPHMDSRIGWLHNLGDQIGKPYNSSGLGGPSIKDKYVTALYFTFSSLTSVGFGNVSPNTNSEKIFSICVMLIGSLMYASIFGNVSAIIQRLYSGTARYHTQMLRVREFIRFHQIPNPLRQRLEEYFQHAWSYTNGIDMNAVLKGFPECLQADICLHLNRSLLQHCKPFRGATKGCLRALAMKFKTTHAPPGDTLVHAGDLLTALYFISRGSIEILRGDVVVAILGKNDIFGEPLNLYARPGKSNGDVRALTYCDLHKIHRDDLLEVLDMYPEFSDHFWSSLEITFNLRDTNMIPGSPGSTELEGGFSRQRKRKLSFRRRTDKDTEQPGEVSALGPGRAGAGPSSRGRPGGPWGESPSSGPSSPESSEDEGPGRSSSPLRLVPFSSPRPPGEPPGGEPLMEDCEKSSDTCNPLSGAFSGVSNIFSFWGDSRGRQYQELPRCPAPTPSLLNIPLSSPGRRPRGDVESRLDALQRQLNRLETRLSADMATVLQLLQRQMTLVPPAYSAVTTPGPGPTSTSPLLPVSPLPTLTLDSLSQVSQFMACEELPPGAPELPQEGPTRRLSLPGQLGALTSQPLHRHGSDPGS

SMILES | hERG current change (%, negative = inhibition) at 10uM [%]
CCc1nnc(NS(=O)(=O)c2ccc(NCc3cc(Br)ccc3O)cc2)s1 | 7.53
O=c1[nH]c(SCc2cccc(Cl)c2)nc2ccccc12 | -2.62
CCOc1ccc(S(=O)(=O)/N=C(\N)c2ccccc2)cc1 | -7.03
CCc1nc(SCC(=O)N2CCOCC2)c2c(=O)n(C)c(=O)n(C)c2n1 | -3.88
C=C(C)c1cccc(C(C)(C)NC(=O)N2CCN(c3ccccc3)CC2)c1 | 5.89
COc1ccc(OCC(=O)Nc2ccc(NC(=O)c3ccco3)cc2)cc1 | -0.279
CCN(CC)c1ccc(CNCc2cccs2)cc1.Cl | -19.2
COCCCN(C(=O)CSCc1ccc(C)cc1)c1c(N)n(Cc2ccccc2)c(=O)[nH]c1=O | 6.9
O=C(c1ccc(Cl)cc1)C1CCCN(Cc2cnn(-c3ccccc3)c2)C1 (stereo not shown) | -74.6
OC(CN1CCC(Cc2ccccc2)CC1)C(F)(F)F (stereo not shown) | 5.97
O=C1O[C@H]([C@@H](O)CO)C(O)=C1O | 7.45
O=[N+]([O-])c1ccc(F)cc1Oc1nc(-c2cccnc2)nc2ccccc12 | 16.6
O=C(CCC(=O)N1CCOc2ccccc21)NCCCN1CCN(Cc2ccccc2)CC1 | -79.8
Cc1nc(C(=O)NNC(=O)c2cccc(Cl)c2)c(C(F)(F)F)o1 | 5.37
Nc1cc(N)nc(SCC(=O)N2CCN(C(=O)c3ccco3)CC2)n1 | 0.783
CC1CCN(C(=O)/C(=C\c2cccs2)NC(=O)c2ccccc2)CC1 | -38
Cc1ccc(C)c(NS(=O)(=O)c2cc(C(=O)Nc3ccccc3-c3ccccc3)ccc2Cl)c1 | 2.19
CCOC(=O)CN1C(=O)CN(c2ccc(C)c(C)c2)C1=O | 8.53
Cc1cc(NC(=O)C(C)SCC(=O)OC(C)C(=O)Nc2ccccc2C)no1 (stereo not shown) | 15
COC(=O)Nc1ncc(CN2CCCCC2)s1 | -5
Cc1ccc(NC(=O)CCC(=O)NNC(=O)Nc2cccc(Cl)c2)c(C)c1 | -12.4
O=C(c1cc(COc2ccc(F)c(F)c2)on1)N1CCSCC1 | -28.9

SMILES | hERG current change (%, negative = inhibition) at 10uM [%]
Cc1cc(-c2ccccc2)c(C#N)c(=S)[nH]1 | 15.4
O=c1[nH]cnc2c1cnn2Cc1ccccc1Cl | 11.7
COc1ccc([N+](=O)[O-])cc1NC(=O)C(C)Sc1ccc(C)cc1 (stereo not shown) | -10.8
COc1ccc(N(C(=O)c2ccncc2)S(=O)(=O)c2ccc(OC)c(OC)c2)cc1 | -36.9
O=C(NCc1cccs1)c1ccc(Cl)c(S(=O)(=O)N2CCCC2)c1 | -19.6
O=[N+]([O-])c1cccc(S(=O)(=O)N2CCC(c3nc(-c4ccncc4)no3)CC2)c1 | 1.54
C1CN(c2nc(N3CCOCC3)nc(N3CCOCC3)n2)CCO1 | -1.75
NC(=S)N/N=C\c1ccccc1OCc1ccccc1 | -12.6
O=C(CN1C(=O)c2ccccc2S1(=O)=O)c1ccc2c(c1)OCCCO2 | 20.3
CC(C)(C)n1nc2c(c1NC(=O)Cc1cccc3ccccc13)CS(=O)C2 (stereo not shown) | 2.29
N/C(=N\OC(=O)COc1ccccc1)c1ccccn1 | 13.6
O=C(Cn1ccc2ccccc2c1=O)NCC(=O)N1CCC2(CC1)OCCO2 | 5.9
O=C(C#Cc1cccc([N+](=O)[O-])c1)c1ccccc1 | 17.3
N#C/C(=C\c1ccc[nH]1)C(=O)NC1CC1 | 3.27
COCCN(C(=O)CSc1nnc(-c2ccc(C)cc2)n1N)c1c(N)n(Cc2ccccc2)c(=O)[nH]c1=O | 20.5
CCc1nc(N2CCCC2)c(C#N)c2c1CCCC2 | 3.98
C[C@@H](C(=O)N1CCN(C(=O)OC(C)(C)C)CC1)n1cc(CCC(=O)O)nn1 | 19.2
COc1ccc(Cc2nnc(NC(=O)c3ccc(OC(C)=O)cc3)s2)cc1OC | 13
O=C(Cc1ccccc1)NCCSCc1ccc(Cl)cc1 | -9.5
O=C(O)Cn1cc(F)c(=O)[nH]c1=O | 6.86
COc1ccc(C(F)(F)F)cc1N/C=C\c1nnnn1-c1ccc(C)cc1 | -13.4
O=C(CSc1cc(Cl)ccc1Cl)NCC(=O)Nc1ccc(F)c(F)c1F | 5.97

SMILES | hERG current change (%, negative = inhibition) at 10uM [%]
C(=N\n1cnnc1)/c1ccc2c(c1)OCCO2 | -4.87
COC(=O)c1sccc1NC(=O)C1CCCCC1C(=O)O (stereo not shown) | 14.7
Cc1ccc(NC(=O)Cn2ccc([N+](=O)[O-])n2)cc1Cl | -9.29
N/C(=N\OC(=O)CC1CCCCC1)c1ccccn1 | -13.4
N#CCCCCN1c2cccc3cccc(c23)S1(=O)=O | -10.1
Cn1c(=O)c(=O)n(C)c2cc(S(=O)(=O)N3CCCC3C(=O)NCc3cccs3)ccc21 (stereo not shown) | 12.3
Cc1cccc2c3c([nH]c12)CCN(C)C3 | 10
Cc1cc(SC2CCOC2=O)nc2ccccc12 (stereo not shown) | 7.36
COc1cc(OC)c(/C=N/NC(=O)c2ccncc2)c(OC)c1 | 8.58
C#Cc1ccc([C@H]2C=C(C(=O)OCC=C)O[C@@H](OCC)[C@@H]2CCCO)cc1 | -13.8
Clc1cccc(Cl)c1CO/N=C/c1c(-c2ccccc2)nc2n1CCS2 | 1.74
CCc1[nH]nc2c1C1(C(=O)N(Cc3ccccc3)c3ccccc31)C(C#N)=C(N)O2 (stereo not shown) | 1.94
CC(C)c1nnc(NC(=O)CCC(=O)NC2CCCCCC2)s1 | 16.5
Cc1ccc(C(=O)NNc2ncnc3c2cnn3C)cc1 | 15.2
CCOc1ccc2nc(COC(=O)c3cccc([N+](=O)[O-])c3)c(C(C)=O)[n+]([O-])c2c1 | -0.667
C/C(=N/NC(N)=S)c1cc2ccc(O)cc2oc1=O | 21.7
COc1ccc(NCc2cc(=O)oc3cc(NC(C)=O)ccc23)cc1 | 17.5
CCOC(=O)N1CCN(C(=O)C2CCN(Cc3cccc(OCc4ccccc4)c3)CC2)CC1.O=C(O)C(=O)O | -58.4
COC(=O)C(C(=O)OC)C(C[N+](=O)[O-])c1ccc(OC)c(OC)c1 (stereo not shown) | -22.7
CCc1ccc(/C([O-])=C(/C(=S)NCCN2CCOCC2)[n+]2ccccc2)cc1 | 16.8
COc1ccccc1C(=O)NNC(=O)C(=O)N1CCCCC1 | 3.18
Fc1cnc(N/N=C/c2ccc(-c3ccc(Br)cc3)o2)nc1N1CCOCC1 | -15.8

SMILES | hERG current change (%, negative = inhibition) at 10uM [%]
CC(C)Oc1cccc(C(=O)N/N=C/c2coc3ccccc3c2=O)c1 | 8.17
COc1ccc(-c2csc(Nc3ccc(C)cn3)n2)cc1 | 10.3
Nc1cc(=O)[nH]c(SCC(=O)N2CCCc3ccccc32)n1 | 7.33
O=C(NCCN1CCN(Cc2ccccc2)CC1)C1c2ccccc2C(=O)N2CCc3ccccc3C12 (stereo not shown) | -14.5
COC(=O)c1cc(C(=O)OCC(=O)NC(=O)NCc2ccccc2)cc([N+](=O)[O-])c1 | 1.58
Cc1ccc(Oc2ncnc(N)c2[N+](=O)[O-])cc1 | 4.67
COc1ccc(C)cc1S(=O)(=O)Nc1cccc(C)c1 | 9.91
CCOC(=O)c1cnc(SC)nc1N1CCCC1 | -21
CCC(=O)N1CCc2cc(S(=O)(=O)NCCC(=O)N3CCN(c4ccccc4)CC3)ccc21 | 11.5
COC(=O)c1cc(NC(=O)c2cc(-c3ccccc3Cl)oc2C(F)(F)F)ccc1N1CCOCC1 | 12.9
Cc1cccc(C)c1OCC(=O)N/N=C/c1ccc2c(c1)OCO2 | 8.9
COC(=O)C1=C(C)NC(=O)NC1c1ccc(-c2ccc(Cl)cc2)o1 (stereo not shown) | 23
Cc1c(C(=O)O)sc2nc(CSc3ncc(C(F)(F)F)cc3Cl)[nH]c(=O)c12 | 7.32
CCOC(=O)N1CCN(C(=O)CS(=O)Cc2nc(-c3cccc(C)c3)oc2C)CC1 (stereo not shown) | -9.37
Cc1nn(CCc2nn[nH]n2)c2nc(-c3ccccc3)cc(C(F)(F)F)c12 | 19.3
O=C(NCc1ccccc1)C1CCCN(S(=O)(=O)c2cccnc2)C1 (stereo not shown) | -4.34
O=C(CNC(=O)c1cccnc1)N/N=C/c1cc(Br)c(O)c(Br)c1 | 24.5
CC(C)CC(NC(=O)OC(C)(C)C)C(=O)NC(C(=O)N1CCCC1C(N)=O)C(C)C (stereo not drawn) (Boc-Leu-Val-Pro-NH2; configuration not given here) | -2.48
CN(C)C(=O)CSc1nc2ccccc2n1CC(=O)N1CCN(c2ccccc2)CC1 | -4.54
N#Cc1ccc(CN2C(=O)NC3(CCCCCC3)C2=O)cc1 | -32.2
O=C(Nc1cccc(S(=O)(=O)NC2=NCCCCC2)c1)c1cccnc1Cl | 10.9
O=C(Nc1ccc(Br)cc1Cl)Nn1cnnc1 | -5.52
